Results on 31 compounds are retold here after PubChem BioAssay AID488969 (Vanderbilt High Throughput Screening Facility, 2010).

Over roughly 110,000 compounds, “z-score” has its median near -0.1; the highest 2% begin near 2. The list shows a part of the results. The source made the active and inactive calls.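 How the source made its calls: active means z-score in the third read window above 3 or below -3; inactive means the rest.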

For this test, the target named is Metabotropic glutamate receptor 8 (Rattus norvegicus) (UniProt P70579). The experiment in a line: rat mGluR8 modulators via GIRK flux, primary screen, cell-based, thallium flux, HTS (AID 488969). The settings on record: HEK293 rat mGluR8, GIRK (G protein-gated inwardly rectifying potassium channel) thallium flux, FluoZin2; at 10 µM; stronger effect = higher value; submaximal glutamate (EC20) added with thallium.
Chain of UniProt P70579 (P70579 whole entry, looked up): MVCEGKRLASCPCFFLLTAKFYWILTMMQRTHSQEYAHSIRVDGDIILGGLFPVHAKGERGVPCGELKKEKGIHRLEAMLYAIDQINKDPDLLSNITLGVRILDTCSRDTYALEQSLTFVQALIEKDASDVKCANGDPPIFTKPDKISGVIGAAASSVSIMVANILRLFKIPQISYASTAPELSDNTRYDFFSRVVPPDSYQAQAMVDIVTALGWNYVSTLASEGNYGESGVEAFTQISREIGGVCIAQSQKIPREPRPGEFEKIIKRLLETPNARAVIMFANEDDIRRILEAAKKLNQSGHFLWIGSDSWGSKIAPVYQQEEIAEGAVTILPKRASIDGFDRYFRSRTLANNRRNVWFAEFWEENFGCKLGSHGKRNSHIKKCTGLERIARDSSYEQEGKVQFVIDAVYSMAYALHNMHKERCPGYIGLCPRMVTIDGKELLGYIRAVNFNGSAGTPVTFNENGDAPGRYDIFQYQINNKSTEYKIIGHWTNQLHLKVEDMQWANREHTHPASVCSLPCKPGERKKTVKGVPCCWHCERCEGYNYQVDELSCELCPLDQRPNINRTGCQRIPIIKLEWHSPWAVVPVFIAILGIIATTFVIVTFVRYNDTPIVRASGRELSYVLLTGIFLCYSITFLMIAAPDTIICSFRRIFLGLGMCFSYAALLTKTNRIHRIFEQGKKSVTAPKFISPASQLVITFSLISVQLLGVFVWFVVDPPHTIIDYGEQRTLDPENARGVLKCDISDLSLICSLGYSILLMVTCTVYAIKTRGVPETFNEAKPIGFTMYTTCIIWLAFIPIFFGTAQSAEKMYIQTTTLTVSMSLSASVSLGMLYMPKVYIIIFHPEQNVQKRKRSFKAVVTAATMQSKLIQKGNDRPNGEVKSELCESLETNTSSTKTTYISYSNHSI
For the compound `C=CCn1c(SC)nc2sc3c(c2c1=O)CCc1ccccc1-3`, the z-score is -0.165. As for `COc1ccc2[nH]c3ccccc3c2c1`, the figure is 0.126; as for `CCN(CC)CCNc1ncnc2c1sc1nc(N3CCOCC3)c3c(c12)CC(C)(C)SC3`, -0.0997; as for `COC(=O)C1C2C=CC3(CN(Cc4ccco4)C(=O)C13)O2` (stereo unspecified), 0.49. As for `CN1/C(=C\C(=O)COC(=O)Cn2nnc(-c3ccccc3)n2)C(C)(C)c2ccccc21`, the figure is 0.88; as for `CCCCNC(=S)NC(=O)c1ccc(Cl)cc1Cl`, active: 3.01; as for `CCn1c(SCC(=O)NCc2ccco2)nc2cccnc21`, 0.177. In the case of `Cc1oc2c(c1C(=O)NCc1ccccc1)CCCC2` it was -0.83. As for `CCOC(=O)C1=NOC(CNC(=O)c2c(-c3ccccc3Cl)noc2C)C1` (stereo unspecified), the z-score is -0.184.

With `COc1ccc(COc2ccccc2C(=O)Nc2ccccn2)cc1[N+](=O)[O-]`, the z-score is -0.201. As for `O=C1OCCC1Sc1nnc(-c2ccccc2Cl)n1Cc1ccccc1` (stereo unspecified), the figure is -0.11; as for `Nn1c(=O)c2ccccc2n2c(SCc3ccccc3)nnc12`, -0.797; as for `CCOc1ccc(NC(=O)C2CC(=O)N(CC)C(=Nc3ccc4c(c3)OCO4)S2)cc1` (stereo unspecified), 0.117.

Turning to `Cc1ccc(C(=O)N/C(=C/c2ccco2)C(=O)NCCc2c[nH]c3ccccc23)cc1`, the z-score is -0.603.

`Cc1ccc(C(=O)CSc2nsc(C)c2C#N)cc1` came in with a z-score of 1.07. Turning to `CCc1cccc(C)c1NC(=S)N1CCCC1C(=O)O` (stereo unspecified), the z-score was -0.125.

Compound `Cc1cc(Oc2ccccc2)nc(OCC#N)n1` registered a z-score of 0.0739. In the case of `O=C1NCCCN1Cc1ccc(F)cc1` it was 0.043; in that of `CCOC(=O)c1ccc(NC(=O)Nc2ccc(S(N)(=O)=O)cc2)cc1`, 0.256; in that of `COc1c(S(=O)(=O)N2CCCC2)ccc(Cl)c1Cl`, -0.291.

Consider `COc1cc(NC(=O)CS(=O)(=O)c2ccc(C)cc2)cc(OC)c1OC`, for which the z-score is active: 3.72. In turn, `Cc1ccc(C(C)C)c(OCC(=O)NNC(=O)C(C(C)C)N2C(=O)c3ccccc3C2=O)c1` (stereo unspecified) gave a z-score of 0.359. In the case of `O=C(O)C1CC=CCC1C(=O)Nc1ccc2c(c1)OCCO2` (stereo unspecified) it was 0.0553. In the case of `CN(C(=O)c1ccc(-c2nn(C)c(=O)c3ccccc23)cc1)c1ccccc1` it was -1.01; in that of `CNc1oc(Cc2ccccc2)nc1S(=O)(=O)c1ccccc1`, -0.133; in that of `CC(C(=O)c1ccc(Br)cc1)[n+]1cccc(NC(=O)c2ccccc2)c1` (stereo unspecified), 0.0307.

As to `COc1ccc(CNc2nc3nc4c(c(=O)n3[nH]2)CCC4)cc1`, the z-score is -0.0479.

Regarding `O=C(CSc1nncn1-c1ccccc1)Nc1ccc(N2CCOCC2)cc1`, the z-score is -0.098. As to `COc1cccc(NC(=O)Cn2c(=O)c3c(ncn3Cc3ccccc3)n(Cc3ccccc3)c2=O)c1`, the z-score is -0.215. As for `COc1ccc(S(=O)(=O)NCC(c2cccnc2)N2CCN(c3ccc(F)cc3)CC2)cc1C` (stereo unspecified), the figure is -0.32; as for `Cc1ccc(SCCc2ccc(C)nc2)cc1`, -0.479.
